For 31 variants, cAMP reporter score and surface expression score results are on record in the GPR68 mutational scans of Howard et al. (2025).

Scores with a large standard error are left out. Two further conditions of the source, in which the scores hardly spread, are not listed. Names with del lack the residues named; names with ins carry added residues between the positions named. For some of these results: The concentration of ogerin is not given here.

B1: GPR68, Q15743 (parent)
chain: MGNITADNSSMSCTIDHTIHQTLAPVVYVTVLVVGFPANCLSLYFGYLQIKARNELGVYLCNLTVADLFYICSLPFWLQYVLQHDNWSHGDLSCQVCGILLYENIYISVGFLCCISVDRYLAVAHPFRFHQFRTLKAAVGVSVVIWAKELLTSIYFLMHEEVIEDENQHRVCFEHYPIQAWQRAINYYRFLVGFLFPICLLLASYQGILRAVRRSHGTQKSRKDQIQRLVLSTVVIFLACFLPYHVLLLVRSVWEASCDFAKGVFNAYHFSLLLTSFNCVADPVLYCFVSETTHRDLARLRGACLAFLTCSRTGRAREAYPLGAPEASGKSGAQGEEPELLTKLHPAFQTPNSPGSGGFPTGRLA

Variants of B1 are the subject of data set [1]. The experiment in a line: cAMP reporter score (Enrich2 score, wild type = 0); higher = more signal; HEK293T, FACS bins.
Variants of B1 are the subject of data set [2]. The experiment in a line: surface expression score (Enrich2 score, wild type = 0); higher = more signal; HEK293T, FACS bins.

For the variant T313_G314insGSG, the cAMP reporter score was determined as 0.095 in data set [1] (pH 5.5); 0.352 in data set [1] (pH 6); 0.27 in data set [1] (pH 6, modulator: ogerin); 0.134 in data set [1] (pH 6.5, modulator: ogerin). For the same variant, in data set [2], the surface expression score is 0.359.
Consider S311_R312insGS, for which the cAMP reporter score in data set [1] (pH 5.5) is 0.65; in data set [1] (pH 6), 0.513; in data set [1] (pH 6, modulator: ogerin), 1.16; in data set [1] (pH 6.5, modulator: ogerin) it was 1.22. The surface expression score in data set [2] stood at 0.646.
As to A316_E318del, the cAMP reporter score was 0.599 in data set [1] (pH 5.5); -0.585 in data set [1] (pH 6); 0.401 in data set [1] (pH 6, modulator: ogerin); 0.04 in data set [1] (pH 6.5, modulator: ogerin). The surface expression score in data set [2] was -0.335.
Take G314_A316del: the cAMP reporter score in data set [1] (pH 5.5) was -0.264; in data set [1] (pH 6), -0.392; in data set [1] (pH 6, modulator: ogerin) it was -0.595; in data set [1] (pH 6.5, modulator: ogerin), -0.144. Further, the surface expression score in data set [2] was -0.932.
Regarding R315_R317del, the cAMP reporter score in data set [1] (pH 5.5) worked out at 1.13; in data set [1] (pH 6), 0.66; in data set [1] (pH 6, modulator: ogerin), 0.687; in data set [1] (pH 6.5, modulator: ogerin), 1.36. In addition, in data set [2], the surface expression score turned out to be 0.607.
For the variant A316del, the cAMP reporter score in data set [1] (pH 5.5) was -0.967; in data set [1] (pH 6, modulator: ogerin), -0.163; in data set [1] (pH 6.5, modulator: ogerin), -0.056. In data set [2], the surface expression score is -0.451.
R312del: the cAMP reporter score in data set [1] (pH 5.5) is 0.13; in data set [1] (pH 6), 1.05; in data set [1] (pH 6, modulator: ogerin), -0.263; in data set [1] (pH 6.5, modulator: ogerin) it was 0.115. Further, the surface expression score in data set [2] is -0.7.
Consider T313_G314insG, for which the cAMP reporter score in data set [1] (pH 5.5) amounted to 1.05; in data set [1] (pH 6), 1.06; in data set [1] (pH 6, modulator: ogerin), 0.401; in data set [1] (pH 6.5, modulator: ogerin) it was 0.625. In data set [2], the surface expression score was determined as 1.16.
For R312_T313del the same measures were 1.29, 0.331, 1.37, 1.16 and 0.072.
For the variant R312_T313insGS, the cAMP reporter score is 0.718 in data set [1] (pH 5.5); 0.304 in data set [1] (pH 6); -0.153 in data set [1] (pH 6, modulator: ogerin); 1.18 in data set [1] (pH 6.5, modulator: ogerin). Also, the surface expression score in data set [2] stood at 0.786.
Take S311del: the cAMP reporter score in data set [1] (pH 5.5) is -0.023; in data set [1] (pH 6), -1.22; in data set [1] (pH 6, modulator: ogerin), -0.156; in data set [1] (pH 6.5, modulator: ogerin), 1.24. In addition, in data set [2], the surface expression score turned out to be 0.149.
For the variant G314_R315insGS, the cAMP reporter score was 0.961 in data set [1] (pH 5.5); 1.07 in data set [1] (pH 6); 0.964 in data set [1] (pH 6, modulator: ogerin); 1.05 in data set [1] (pH 6.5, modulator: ogerin). The surface expression score in data set [2] amounted to 1.01.
In the case of G314_R315insGSG, the cAMP reporter score in data set [1] (pH 5.5) is 0.169; in data set [1] (pH 6) it was -0.055; in data set [1] (pH 6, modulator: ogerin), 0.251; in data set [1] (pH 6.5, modulator: ogerin) it was 0.341. For the same variant, the surface expression score in data set [2] was 0.382.
As to A316_R317insGSG, the cAMP reporter score in data set [1] (pH 5.5) amounted to 1.61; in data set [1] (pH 6) it was 1.05; in data set [1] (pH 6, modulator: ogerin) it was 1.44; in data set [1] (pH 6.5, modulator: ogerin), 1.68. In addition, the surface expression score in data set [2] amounted to 0.901.
For T313V the same measures were 0.501, 0.24, 0.346, 0.687 and 0.174.
Take T313A: the cAMP reporter score in data set [1] (pH 5.5) was -0.158; in data set [1] (pH 6) it was -0.371; in data set [1] (pH 6, modulator: ogerin), -0.232; in data set [1] (pH 6.5, modulator: ogerin), -0.849. Moreover, in data set [2], the surface expression score is -0.6.
As to T313G, the cAMP reporter score in data set [1] (pH 5.5) is -0.007; in data set [1] (pH 6), -0.207; in data set [1] (pH 6, modulator: ogerin), -0.58; in data set [1] (pH 6.5, modulator: ogerin), -0.116. For the same variant, the surface expression score in data set [2] came to 0.34.
With T313R, the cAMP reporter score is 0.053 in data set [1] (pH 5.5); -0.076 in data set [1] (pH 6, modulator: ogerin); -0.778 in data set [1] (pH 6.5, modulator: ogerin). The surface expression score in data set [2] stood at 0.548.
As to T313M, the cAMP reporter score was found to be 0.082 in data set [1] (pH 5.5); 0.541 in data set [1] (pH 6, modulator: ogerin); 0.031 in data set [1] (pH 6.5, modulator: ogerin). Besides, the surface expression score in data set [2] is -0.129.
For T313H the same measures were 0.932, 0.482, 1.53 and 0.921.
Consider T313D, for which the cAMP reporter score in data set [1] (pH 5.5) was -0.067; in data set [1] (pH 6), 0.321; in data set [1] (pH 6, modulator: ogerin), -0.783; in data set [1] (pH 6.5, modulator: ogerin), 0.21. For the same variant, the surface expression score in data set [2] was determined as 0.267.
T313K: the cAMP reporter score was 0.019 in data set [1] (pH 5.5); 0.131 in data set [1] (pH 6); 0.205 in data set [1] (pH 6, modulator: ogerin); 0.377 in data set [1] (pH 6.5, modulator: ogerin). Moreover, the surface expression score in data set [2] came to 0.054.
T313L: the cAMP reporter score in data set [1] (pH 5.5) is -0.5; in data set [1] (pH 6), -1.1; in data set [1] (pH 6, modulator: ogerin) it was -0.181; in data set [1] (pH 6.5, modulator: ogerin), -0.636. In data set [2], the surface expression score was -0.421.
For T313N the same measures were 0.209, -0.622, 0.538, 0.548 and -0.103.
For T313C the same measures were -0.573, -0.74, -0.008, -0.39 and -0.35.
Take T313S: the cAMP reporter score in data set [1] (pH 5.5) was 0.51; in data set [1] (pH 6), -0.322; in data set [1] (pH 6, modulator: ogerin), 0.613; in data set [1] (pH 6.5, modulator: ogerin) it was -0.205. In data set [2], the surface expression score was 0.065.
With T313F, the cAMP reporter score in data set [1] (pH 5.5) was -0.582; in data set [1] (pH 6) it was -1.14; in data set [1] (pH 6, modulator: ogerin) it was -0.249; in data set [1] (pH 6.5, modulator: ogerin) it was -0.452. In addition, in data set [2], the surface expression score is -0.05.
For T313Q, the cAMP reporter score in data set [1] (pH 5.5) amounted to 1.05; in data set [1] (pH 6, modulator: ogerin), 0.847; in data set [1] (pH 6.5, modulator: ogerin), 1.15. Besides, the surface expression score in data set [2] is 0.725.
For the variant T313W, the cAMP reporter score is -0.607 in data set [1] (pH 5.5); -0.714 in data set [1] (pH 6); -0.724 in data set [1] (pH 6, modulator: ogerin); -0.477 in data set [1] (pH 6.5, modulator: ogerin). Moreover, the surface expression score in data set [2] is -0.704.
For the variant T313E, the cAMP reporter score turned out to be 0.316 in data set [1] (pH 5.5); 0.653 in data set [1] (pH 6); 0.19 in data set [1] (pH 6, modulator: ogerin); 0.63 in data set [1] (pH 6.5, modulator: ogerin). Also, in data set [2], the surface expression score is -0.139.
Turning to T313P, the cAMP reporter score was -0.881 in data set [1] (pH 5.5); -0.176 in data set [1] (pH 6, modulator: ogerin); -0.692 in data set [1] (pH 6.5, modulator: ogerin).
